Experimental findings from the supplement of paper PMC12217912 are described below.

B1: TEV protease; numbered along this chain (parent)
chain: MGESLFKGPRDYNPISSSICHLTNESDGHTTSLYGIGFGPFIITNKHLFRRNNGTLVVQSLHGVFKVKDTTTLQQHLVDGRDMIIIRMPKDFPPFPQKLKFREPQREERICLVTTNFQTKSMSSMVSDTSCTFPSGDGIFWKHWIQTKDGQCGSPLVSTRDGFIVGIHSASNFTNTNNYFTSVPKNFMELLTNQEAQQWVSGWRLNADSVLWGGHKVFMVKPEEPFQPVKEATQL

In this experiment the parent is B1. Nature of the experiment: raw area under fraction-flipped curve 0-4 h after induction (AUC4h, not background-subtracted), DNA-recorder readout of cleavage of the substrate (dimensionless); higher = more cleavage of the substrate by the protease variant. To be noted: temperature: 34 °C; time window: 0-4 h after rhamnose induction.

Some of the results follow. Sequences were assembled here from the parent chain. Inactive controls read about 0.05.
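Further: Bxb1 expression induced with 0.2% (w/v) L-rhamnose at OD600 near 0.5, cultures sampled hourly, flipped fraction per protease–substrate barcode pair counted by paired-end Illumina sequencing.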

Turning to MGESLFKGPRDQNPISSSICHLTNESDGHTTSLYGIGFGPFIITNKHLFRRNNGTLVVQSLHGVFKVKDTTTLQQHLVDGRDMIIIRMPKDFPPFPQKLKFREPQREERICLVTTNFQTKSMSSMVSDTSCTFPSGDGIFWKHWIQTKDGQCGSPLVSTRDGFIVGIHSASNFTNTNNYFTSVPKNFMELLTNQEAQQWVSGWRLNADSVLWGGHKVFMVKPEEPFQPVKEATQL [Y12Q], the “area with substrate ENLYFDS” value was determined as 0.0546, the “area with substrate ENLYFES” value was determined as 0.1, the “area with substrate ENLYFFS” value was 0.061 and the “area with substrate ENLYFGS” value was 0.0539. Further, the “area with substrate ENLYFHS” value was determined as 0.0633, the “area with substrate ENLYFIS” value turned out to be 0.0629, the “area with substrate ENLYFKS” value came out at 0.0644 and the “area with substrate ENLYFLS” value came out at 0.0546. Besides, the “area with substrate ENLYFMS” value was 0.0716, the “area with substrate ENLYFNS” value was 0.0686, the “area with substrate ENLYFPS” value is 0.057 and the “area with substrate ENLYFSS” value stood at 0.0439. In addition, the “area with substrate ENLYFTS” value worked out at 0.0522, the “area with substrate ENLYFWS” value stood at 0.0558 and the “area with substrate ENLYFYS” value amounted to 0.0682.

Take MGESLFKGPRDYNPISSSICHLTNESDGHTTSLYGIGFGPFIITNKHLFRRNNGTHVVQSLHGVFKVKDTTTLQQHLVDGRDMIIIRMPKDFPPFPQKLKFREPQREERICLVTTNFQTKSMSSMVSDTSCTFPSGDGIFWKHWIQTKDGQCGSPLVSTRDGFIVGIHSASNFTNTNNYFTSVPKNFMELLTNQEAQQWVSGWRLNADSVLWGGHKVFMVKPEEPFQPVKEATQL [L56H]: the “area with substrate ENLYFDS” value is 0.0378, the “area with substrate ENLYFKS” value was determined as 0.0336, the “area with substrate ENLYFPS” value was 0.0485 and the “area with substrate ENLYFSS” value came out at 0.0503. Moreover, the “area with substrate ENLYFTS” value came out at 0.0307.

Turning to MGESLFKGPRDYNPISSSICHLTNESDGHTTSLYGIGFGPFIITNKHLFRRNNGTLVVQSLHGVFKVKDTTTLQQHLVDERDMIIIRMPKDFPPFPQKLKFREPQREERICLVTTNFQTKSMSSMVSDTSCTFPSGDGIFWKHWIQTKDGQCGSPLVSTRDGFIVGIHSASNFTNTNNYFTSVPKNFMELLTNQEAQQWVSGWRLNADSVLWGGHKVFMVKPEEPFQPVKEATQL [G80E], the “area with substrate ENLYFDS” value was determined as 0.0855, the “area with substrate ENLYFES” value is 0.0699, the “area with substrate ENLYFFS” value was found to be 0.0796 and the “area with substrate ENLYFHS” value came to 0.0653. Moreover, the “area with substrate ENLYFIS” value came to 0.057, the “area with substrate ENLYFKS” value came out at 0.0605, the “area with substrate ENLYFLS” value stood at 0.0488 and the “area with substrate ENLYFMS” value was 0.0791. In addition, the “area with substrate ENLYFNS” value stood at 0.0765, the “area with substrate ENLYFPS” value was 0.0523, the “area with substrate ENLYFRS” value is 0.0496 and the “area with substrate ENLYFSS” value was found to be 0.0696. Moreover, the “area with substrate ENLYFTS” value is 0.066, the “area with substrate ENLYFVS” value came out at 0.0455, the “area with substrate ENLYFWS” value worked out at 0.0525 and the “area with substrate ENLYFYS” value was 0.0461.

As to MGESLFKGPRDYNPISSSICHLTNESDGHTTSLYGIGFGPFIITNKHLFRRNNGTLVVQSLHGVFKVKGTTTLQQHLVDGRDMIIIRMPKDFPPFPQKLKFREPQREERICLVTTNFQTKSMSSMVSDTSCTFPSGDGIFWKHWIQTKDGQCGSPLVSTRDGFIVGIHSASNFTNTNNYFTSVPKNFMELLTNQEAQQWVSGWRLNADSVLWGGHKVFMVKPEEPFQPVKEATQL [D69G], the “area with substrate ENLYFDS” value came out at 0.0566, the “area with substrate ENLYFES” value is 0.068, the “area with substrate ENLYFFS” value was found to be 0.0645 and the “area with substrate ENLYFHS” value came out at 0.0616. Moreover, the “area with substrate ENLYFIS” value amounted to 0.0539, the “area with substrate ENLYFMS” value was 0.0592, the “area with substrate ENLYFPS” value is 0.0502 and the “area with substrate ENLYFRS” value was found to be 0.0622.

Regarding MGESLFKGPRDYNPISSSICHLTNESDGHTTSLYGIGFGPFIITNKHLFRRNNGTLVVQSLHGVFKVKDTTTLQQHLVDGRDMIIIRMPKDFPPFPQKLKFREPQREERICLVTTNFQTKSMSSMVSDTSCTFPSGDGIFWKHWIQTKDGQCGSPLVSTRDGFIVGIHSASNFTNTNNYFTSVPKNFMELLTNQEAQQGVSGWRLNADSVLWGGHKVFMVKPEEPFQPVKEATQL [W199G], the “area with substrate ENLYFDS” value came to 0.0575, the “area with substrate ENLYFES” value is 0.063, the “area with substrate ENLYFFS” value turned out to be 0.0689 and the “area with substrate ENLYFHS” value worked out at 0.0454. The “area with substrate ENLYFIS” value was 0.0565, the “area with substrate ENLYFKS” value worked out at 0.0645, the “area with substrate ENLYFLS” value was found to be 0.0608 and the “area with substrate ENLYFMS” value stood at 0.0526. The “area with substrate ENLYFNS” value stood at 0.0561, the “area with substrate ENLYFPS” value was determined as 0.0563, the “area with substrate ENLYFSS” value is 0.0606 and the “area with substrate ENLYFTS” value turned out to be 0.046. The “area with substrate ENLYFVS” value was 0.062 and the “area with substrate ENLYFWS” value worked out at 0.0613.

Regarding MGESLFKGPRDYNPISSSICHLTNESDGHTTSLYGIGFGPFIITNKHLFRRNNGTLVVQSLHGVFKVKDTTTLQQHLVDGRDMIIIRMPKDFPPFPQKLKFREPQREERICLVTTNFQTKSMSSMVSDTSCTFPSGDGIFWKHWIQTKDGQCGSPLVSCRDGFIVGIHSASNFTNTNNYFTSVPKNFMELLTNQEAQQWVSGWRLNADSVLWGGHKVFMVKPEEPFQPVKEATQL [T159C], the “area with substrate ENLYFDS” value was 0.0328, the “area with substrate ENLYFES” value was found to be 0.0451, the “area with substrate ENLYFFS” value was 0.0652 and the “area with substrate ENLYFIS” value stood at 0.0329. Besides, the “area with substrate ENLYFVS” value worked out at 0.0566.

Take MGESLFKGPRDYNPNSSSICHLTNESDGHTTSLYGIGFGPFIITNKHLFRRNNGTLVVQSLHGVFKVKDTTTLQQHLVDGRDMIIIRMPKDFPPFPQKLKFREPQREERICLVTTNFQTKSMSSMVSDTSCTFPSGDGIFWKHWIQTKDGQCGSPLVSTRDGFIVGIHSASNFTNTNNYFTSVPKNFMELLTNQEAQQWVSGWRLNADSVLWGGHKVFMVKPEEPFQPVKEATQL [I15N]: the “area with substrate ENLYFDS” value was determined as 0.0514, the “area with substrate ENLYFES” value was found to be 0.0683, the “area with substrate ENLYFFS” value was determined as 0.0422 and the “area with substrate ENLYFGS” value is 0.0403. The “area with substrate ENLYFHS” value was 0.0567, the “area with substrate ENLYFIS” value amounted to 0.0519, the “area with substrate ENLYFKS” value stood at 0.0574 and the “area with substrate ENLYFMS” value stood at 0.0538. In addition, the “area with substrate ENLYFNS” value came out at 0.0644, the “area with substrate ENLYFPS” value turned out to be 0.046, the “area with substrate ENLYFRS” value came to 0.043 and the “area with substrate ENLYFTS” value is 0.0522. Moreover, the “area with substrate ENLYFVS” value came to 0.0663, the “area with substrate ENLYFWS” value amounted to 0.0424 and the “area with substrate ENLYFYS” value is 0.0725.

Take MGESLFKGPRDYNPISSSICHLTNESDGHTTSLYGIGFGPFIITNNHLFRRNNGTLVVQSLHGVFKVKDTTTLQQHLVDGRDMIIIRMPKDFPPFPQKLKFREPQREERICLVTTNFQTKSMSSMVSDTSCTFPSGDGIFWKHWIQTKDGQCGSPLVSTRDGFIVGIHSASNFTNTNNYFTSVPKNFMELLTNQEAQQWVSGWRLNADSVLWGGHKVFMVKPEEPFQPVKEATQL [K46N]: the “area with substrate ENLYFDS” value worked out at 0.0557, the “area with substrate ENLYFHS” value was 0.0429, the “area with substrate ENLYFIS” value came out at 0.059 and the “area with substrate ENLYFLS” value was 0.0851. For the same variant, the “area with substrate ENLYFNS” value is 0.065, the “area with substrate ENLYFPS” value was determined as 0.0542, the “area with substrate ENLYFRS” value amounted to 0.044 and the “area with substrate ENLYFTS” value was found to be 0.0506. The “area with substrate ENLYFVS” value came to 0.057 and the “area with substrate ENLYFWS” value was found to be 0.0639.

Take MGESLFKGPRDYNPISSSICHLTNESDGHTTSLYGIGFGPFIITNKHLFRRNNGTLVVQSLHGVFKVKDTTTLQQHLVDGRDMIIIRMPKDFPPFPQKLKFREPQREERICLVTTNFQTKSMSSMVSDTSCTFPSGDGIFWKHWIQTKDGQCGSPLVSTRDGFIVGIHSASNFTNTNNYFTSVPKNFMELLTNQEAQQWGSGWRLNADSVLWGGHKVFMVKPEEPFQPVKEATQL [V200G]: the “area with substrate ENLYFDS” value came to 0.0597, the “area with substrate ENLYFES” value stood at 0.0611, the “area with substrate ENLYFFS” value came to 0.0726 and the “area with substrate ENLYFIS” value came to 0.0628. Moreover, the “area with substrate ENLYFKS” value stood at 0.0729, the “area with substrate ENLYFPS” value was 0.0644 and the “area with substrate ENLYFTS” value came out at 0.0375.

Regarding MGESLFKGPRDYNPISSSICHLTNESDGHTTSLYGIGFGPFIITNKHLFRRNNGTLVVQSLHGVFKVKDTTTLQQHLVDGRDMIIIRMPKDFPPFPQKLKFREPQREERICLVTTNFQTKSMSSMVSDTSCTFPSGDGIFWKHWIQTKDGQCGSPLVSTRDGFIVGIHSASNFTNTNNYFTSVPKNFMELLTNQEAQQWVSGWRLNADSVLWGCHKVFMVKPEEPFQPVKEATQL [G214C], the “area with substrate ENLYFDS” value turned out to be 0.078, the “area with substrate ENLYFFS” value amounted to 0.078, the “area with substrate ENLYFGS” value stood at 0.0585 and the “area with substrate ENLYFIS” value worked out at 0.0556. Further, the “area with substrate ENLYFMS” value was determined as 0.0861.
